# The supplement of paper PMC3334620
# Over roughly 33,000 sequences, “E-score (-0.5 to 0.5)” has its median near -0.013; the highest 2% begin near 0.3. This is one part of the list.
# Biological target: T1, Msn1 (UniProt P22148)
# T1 sequence: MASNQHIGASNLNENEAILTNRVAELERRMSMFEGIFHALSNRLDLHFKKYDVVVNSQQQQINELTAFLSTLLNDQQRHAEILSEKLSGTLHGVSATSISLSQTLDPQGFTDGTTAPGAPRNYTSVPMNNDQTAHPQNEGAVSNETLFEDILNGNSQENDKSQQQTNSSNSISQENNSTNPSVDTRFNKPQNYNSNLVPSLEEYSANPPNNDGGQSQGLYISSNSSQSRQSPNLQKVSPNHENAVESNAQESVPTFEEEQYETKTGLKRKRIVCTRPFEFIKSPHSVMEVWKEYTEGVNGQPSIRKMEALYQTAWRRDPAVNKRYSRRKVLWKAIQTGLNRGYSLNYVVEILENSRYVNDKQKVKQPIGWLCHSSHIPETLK
# Assay: PBM E-score (8-mer binding enrichment) (E-score (-0.5 to 0.5)); higher = stronger / more preferred TF binding; most listed sequences are background and not binding sites
# Settings: protein concentration: 200 nM; construct: GST-full length
# Outline: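 Using PURExpress in vitro transcription/translation, GST-tagged yeast transcription factors were made in full-length or DNA-binding-domain form. These were applied at about 100-200 nM to double-stranded universal all-10-mer Agilent arrays, and bound protein was detected with fluorescent anti-GST. Scans were normalised with masliner before the Universal PBM Analysis Suite assigned E-scores to ungapped eight-base words pooled with their reverse complements.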
row,Sequence,PBM E-score
1,AACCACGA,-0.0849
2,GCTTCGGA,0.142
3,CCGTTCGA,-0.0871
4,CGCGGCTC,-0.00316
5,CTGCAGAA,0.136
6,GATTATGA,0.126
7,CAAGTTCA,0.158
8,CCTTAAAG,-0.018
9,CCGTGGCG,-0.211
10,ATACAGAA,0.203
11,CATGGCGG,-0.248
12,CATTTAGG,0.138
13,AGCTGGTG,-0.111
14,TGGTGGAA,0.00587
15,AACACTCA,-0.00135
16,AGGAGCCA,-0.23
17,ACAGGCCG,0.0698
18,GAGTACTC,0.00194
19,GCAGTGTA,-0.0481
20,AGTCTCCG,0.159
21,GAAAAATA,0.187
22,AAGGACAT,0.49
23,GCTGCCAC,-0.149
24,ACTGACGA,0.0858
25,AGATACTC,-0.0218

row,Sequence,PBM E-score
1,ACATCGCG,0.0812
2,TAAGTTAA,-0.0568
3,CCTGCCGC,-0.181
4,TCGGTAAA,0.134
5,GATTGTGC,-0.0365
6,ACCAGCTC,-0.103
7,CGTCAACG,-0.179
8,CCTGGATA,-0.127
9,ATGCCCGG,-0.043
10,AAAATCCT,0.115
11,ATCCTTTG,0.075
12,CCGCCGCG,-0.00962
13,ACCTTTTA,-0.141
14,GTATGCAC,0.07
15,CACTTTTC,0.136
16,GATCGGCC,-0.0564
17,CGTGTACA,0.277
18,CACTTTAA,0.155
19,AGATTCGC,-0.0289
20,ATACCACG,0.00303
21,ATGGCGTG,0.0499
22,CTAATTTA,0.259
23,CCTAGACG,-0.133
24,CACTGCAG,0.0287
25,GAAAGCGC,0.00496

row,Sequence,PBM E-score
1,GAACCTTC,-0.0971
2,ACCAAAGT,0.115
3,TTCCTCAA,-0.0224
4,ACAGCTGG,-0.0677
5,AACCAGTG,-0.183
6,CGAAGCAG,-0.15
7,GTAAAAGA,0.16
8,CCCTGTAC,-0.232
9,AACCCAAT,-0.0576
10,CAACCCAC,0.054
11,GTTAAGAA,-0.0961
12,AGCTAGTG,-0.03
13,ATTCACGG,0.0109
14,CCTCGTGA,0.121
15,AATGGACA,0.438
16,TGTTATAA,0.042
17,GCGGAGAA,-0.00976
18,CCGCTCGA,-0.143
19,AACCGAAC,-0.0294
20,CGCAAGTA,0.175
21,CCTGTCTA,0.143
22,CGGTGAGC,-0.0731
23,ATAGTGTC,0.0883
24,CGCTTCGC,-0.108
25,AAGTTCAC,-0.00901

row,Sequence,PBM E-score
1,CAACTCCC,-0.124
2,AGTTCACG,0.0486
3,CCTGGCGC,-0.165
4,CCGAGAAG,-0.0277
5,CCGACAAA,0.42
6,ATATTCTC,0.0936
7,CATATGAC,0.143
8,GAGTTACA,-0.0116
9,CATTATGC,-0.00798
10,AGTGAAAC,0.0644
11,CCCATATA,0.0528
12,GGGACACA,0.449
13,CCCATCCG,-0.247
14,CATCACCG,-0.0162
15,CGGATCTC,0.157
16,TCTGAAAA,0.152
17,CATATAAA,0.0972
18,GAGCCACC,-0.235
19,ATGCAAAA,0.241
20,CCTCGAAC,-0.0615
21,CTCTCGGA,0.142
22,GCACTTCA,0.0175
23,CATCATGC,-0.00249
24,AAGCGGAA,0.163
25,GTAAGCCA,-0.325

row,Sequence,PBM E-score
1,AAGTCCAT,0.262
2,GACGCAAC,0.046
3,ATCCATCC,0.0837
4,ACAAGGTC,-0.0442
5,ATTTCTTG,0.177
6,GCACCAGC,-0.185
7,GCCGCTCA,-0.178
8,GTAAACTA,0.00578
9,CGGCCCTA,0.0225
10,GTGTTCCA,-0.131
11,CCAAGTTC,-0.198
12,GTTAATCA,0.188
13,CAACGAAA,0.0881
14,ACGGGAGG,-0.268
15,ATTAGGAC,0.37
16,TCTTACAA,0.0399
17,AGTTGCGG,0.164
18,ACAGTTAA,-0.0448
19,ACGCCCTA,-0.236
20,AGCCGTGA,0.0413
21,CTTAGTAC,0.0335
22,AGAGGTGA,-0.00856
23,ATCCAGAC,0.0593
24,GCACCAAA,-0.064
25,GAAAACAC,0.0633

row,Sequence,PBM E-score
1,AGTCAACG,-0.13
2,AGTTAATC,0.00637
3,ATGGAACG,-0.158
4,CGTATAAG,-0.0644
5,ATCTGACG,-0.0857
6,AATAGATT,0.0301
7,CGATTAAG,0.0824
8,CACCCTAG,-0.0115
9,ACGACAGC,-0.0167
10,ATAATGTG,-0.0687
11,ATCGCATG,0.116
12,AAGATACT,-0.088
13,AATGTGGC,-0.0487
14,GCGAGCGA,0.0627
15,ACCCTCAG,0.0884
16,AGGAGTTG,-0.0847
17,CAAAGCCC,-0.0732
18,ACGTGGAC,0.172
19,ACCGGACA,0.306
20,CGGCTAGA,-0.107
21,AAGCATAT,-0.0831
22,AACCTTCA,-0.111
23,AAGTCTAC,0.0709
24,CCGCACTC,-0.065
25,ATAAATTC,0.129

row,Sequence,PBM E-score
1,AACAAGGT,-0.114
2,TACTCCCA,0.0828
3,CAGGCTAC,-0.111
4,CGCATATC,0.12
5,CTGGTCAC,0.0333
6,CCACACCC,-0.196
7,CATGATCG,-0.0605
8,GCCCCAGA,-0.165
9,CATAACTC,-0.00091
10,CAGGCAAC,-0.118
11,AGCCTACC,-0.171
12,AATATACG,-0.054
13,GCAATAAA,0.241
14,CGTGTCGA,0.0442
15,ACACGGGA,0.0215
16,AACCGACA,0.17
17,CAATTTGG,0.0773
18,CGTACCGC,-0.136
19,CTCCCACA,-0.147
20,GCTTGTCA,0.209
21,CACGTATG,-0.0734
22,CGGAATCA,0.0532
